Measurements: PMC4336329 (PLoS ONE, 2015)
About 14,000 (4.5%) of roughly 310,000 compounds showed an effect of 50% or more. Effects have a minus sign here. The list shows a part of the results.

The compounds below were run against human ether-à-go-go-related gene (hERG) potassium channel (human, UniProt Q12809) (assay: primary screen, population patch clamp on CHO cells stably expressing hERG).
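Further: peak tail current of the secondary pulse compared with the same well before compound.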

human ether-à-go-go-related gene (hERG) potassium channel, sequence (Q12809 whole entry, looked up): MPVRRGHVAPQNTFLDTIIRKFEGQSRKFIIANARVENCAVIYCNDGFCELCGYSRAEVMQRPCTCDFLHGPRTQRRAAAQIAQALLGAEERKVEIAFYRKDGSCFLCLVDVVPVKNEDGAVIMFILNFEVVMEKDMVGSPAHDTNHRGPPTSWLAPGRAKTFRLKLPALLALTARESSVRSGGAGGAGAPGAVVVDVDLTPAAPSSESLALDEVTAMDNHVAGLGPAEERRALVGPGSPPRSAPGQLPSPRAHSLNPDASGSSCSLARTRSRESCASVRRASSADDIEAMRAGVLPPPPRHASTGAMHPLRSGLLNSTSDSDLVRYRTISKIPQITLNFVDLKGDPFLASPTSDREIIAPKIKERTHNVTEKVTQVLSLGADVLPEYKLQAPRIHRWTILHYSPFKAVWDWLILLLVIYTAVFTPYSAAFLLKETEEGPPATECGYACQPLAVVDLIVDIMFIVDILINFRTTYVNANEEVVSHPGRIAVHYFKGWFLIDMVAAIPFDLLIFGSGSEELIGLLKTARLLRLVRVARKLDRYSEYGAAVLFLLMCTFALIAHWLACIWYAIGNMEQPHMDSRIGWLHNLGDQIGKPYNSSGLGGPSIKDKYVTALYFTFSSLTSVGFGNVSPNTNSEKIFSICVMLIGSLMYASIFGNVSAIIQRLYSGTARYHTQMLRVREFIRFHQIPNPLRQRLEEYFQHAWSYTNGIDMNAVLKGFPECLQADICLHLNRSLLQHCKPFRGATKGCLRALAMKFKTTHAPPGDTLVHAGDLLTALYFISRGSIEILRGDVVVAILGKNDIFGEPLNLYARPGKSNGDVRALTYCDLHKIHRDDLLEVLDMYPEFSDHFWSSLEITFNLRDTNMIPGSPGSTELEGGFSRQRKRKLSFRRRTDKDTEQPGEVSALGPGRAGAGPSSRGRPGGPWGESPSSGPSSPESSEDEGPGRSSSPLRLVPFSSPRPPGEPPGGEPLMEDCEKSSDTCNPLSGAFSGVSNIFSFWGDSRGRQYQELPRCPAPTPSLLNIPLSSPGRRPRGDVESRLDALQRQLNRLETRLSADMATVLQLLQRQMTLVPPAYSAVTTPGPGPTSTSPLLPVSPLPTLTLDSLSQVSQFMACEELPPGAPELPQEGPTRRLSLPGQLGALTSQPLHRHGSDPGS

SMILES	hERG current change (%, negative = inhibition) at 10uM
CC(C)(C)C(=O)CSc1nc2c(c(-c3cccs3)c1C#N)CCC2.CCO	16.1%
COCCCNC(=S)N/N=C/c1ccc(N(C)C)cc1	15.6%
O=c1c2sc3nc(N4CCOCC4)c4c(c3c2ncn1-c1ccccc1)CCCC4	20.7%
COc1ccc(OCC(=O)Nc2ccc3c(c2)nc(CN2CCCC2)n3C)cc1	-26.9%
NC(=O)c1ccsc1NC(=O)c1ccc(N2CCCC2=O)cc1	5.29%
O=C(OCc1cccc(F)c1)c1cc2ccccc2cc1O	12.3%
CCc1ccc(C(CNC(=O)c2ccc3c(=O)n(-c4ccccc4F)c(=S)[nH]c3c2)N(C)C)cc1 (stereo not shown)	-4.7%
COc1ccc(Nc2nccc3c2ncn3C)cc1	10.6%
Cc1csc(SCC(=O)NCc2cccc(Cl)c2)n1	-7.05%
CC1(C)COC(c2ccc(F)c([N+](=O)[O-])c2)=N1	-10.3%
O=C1CCCN1C(=O)COc1cc(F)ccc1[N+](=O)[O-]	5.56%
Cc1cc(OCC(=O)O)c2cccc(C)c2n1.Cl	11.2%
CC1CCCC(C)N1CCCNC(=O)c1ccc2c(c1)NC(=O)c1ccccc1S2 (stereo not shown)	4.54%
Cc1ccc(S(=O)(=O)NC(=O)Nc2ncc3c(n2)CC(c2ccco2)CC3=O)cc1 (stereo not shown)	-2.39%
Cc1[nH]c2ccc(C(=O)OC(C)C(=O)NC3CCCCC3C)cc2c1C (stereo not shown)	-3.03%
O=C(NCCN1CCCC1)c1ccc2c(c1)N(Cc1ccc(F)cc1)C(=O)c1ccccc1S2=O (stereo not shown)	-7.19%
COCC(=O)NCc1nc2ccccc2n1Cc1ccccc1F	4.68%
COc1ccc(C)cc1NC(=O)CSc1nnc(-c2ccc(C)cc2)o1	10.6%
CC(=O)Nc1ccc(-c2ccc(NC(C)=O)cc2)cc1	8.78%
CCOC(=O)c1cnn(-c2nc(-c3cccc(F)c3)cs2)c1C(F)(F)F	6.51%
CC(=O)c1ccc(S(=O)(=O)N2CCN(C(=O)CSC(=S)N3CCCC3)CC2)cc1	-6.09%
O=C1Cc2ccccc2C(=O)N1CCc1ccccc1	-4.48%
O=C(c1ccccc1-c1nc(-c2ccccc2Cl)no1)N1CCOCC1	-6.07%
COC(=O)C(CCSC)NC(=O)CNS(=O)(=O)c1ccc(F)cc1 (stereo not shown)	12.9%
O=C(CCCn1c(SCc2cc(=O)n3ccccc3n2)nc2ccccc2c1=O)NCC1CCCO1 (stereo not shown)	-1.72%
